The text below walks through data of ChEMBL document CHEMBL4888484, “Replenishing the malaria drug discovery pipeline: Screening and hit evaluation of the MMV Hit Generation Library 1 (HGL1) against asexual blood stage Plasmodium falciparum ,using a nano luciferase reporter read-out” (2022).

Out of some 150,000 compounds screened, about 540 (0.36%) showed an effect of 50% or more. This is one part of the list.

For this assay, the system named is Plasmodium falciparum. Briefly: Primary screen in NF54 nanoGlo assay, in single point, at 2uM, 72h; a lower Z score goes with more inhibition. Format: functional, Erythrocyte. To be noted: timepoint 72 hour.
As a reminder, the % Inhibition is the change of the read-out against control, counted positive when it falls. As to `CS(=O)(=O)c1ccc(OCc2noc(-c3ccco3)n2)cc1`, the “% Inhibition” value is on record as -17% and the Z score is on record as 3.04.

Consider `O=C1OCC[C@@H]1N1CCc2ccccc2CC1`, for which the “% Inhibition” value is on record as -5% and the Z score came out at 0.74.

With `Cc1nc(C(C)C)c(Cc2ccc(F)cc2)c(N2CCN(C(=O)c3ccccc3Cl)CC2)n1`, the “% Inhibition” value was determined as 6% and the Z score is reported as -0.61.

On to `CN1N=C(C(=O)N[C@H]2CCCc3c2cnn3-c2ccc(F)cc2F)CCC1=O`, for which the “% Inhibition” value was -9% and the Z score amounted to 1.28.

As for `Cc1nc(C2CC2)nc(N2CCN(C(=O)c3ccc(F)cc3)CC2)c1Cc1ccc(Cl)cc1Cl`, the “% Inhibition” value was -4% and the Z score is recorded as 0.7.

As to `CCCc1cc2c(cc1N(C(=O)C1CCC(=O)N1)C(=O)C1CCC(=O)N1)OCO2` (centres undefined), the “% Inhibition” value is recorded as -4% and the Z score is 0.55.

With `CNC(=O)CCN(C)C(=O)c1ccc(-c2cn(C(F)F)nc2C)cc1`, the “% Inhibition” value is recorded as -19% and the Z score was found to be 2.37.

Consider `Cc1nn(C)c(=O)n1C1CCN(C(=O)CC2CCCCC2)CC1`, for which the “% Inhibition” value was 5% and the Z score is on record as -0.67.

On to `CC(C)(C)C1CCC2(CC1)CC(=O)c1ccc(OCC(=O)NCCN3CCOCC3)cc1O2` (centres undefined), for which the “% Inhibition” value is reported as -9% and the Z score came to 0.96.

Consider `C[C@@H](c1ccccc1)n1ccc(NC(=O)c2ccc(=O)n(C)c2)n1`, for which the “% Inhibition” value was found to be 3% and the Z score is -0.29.

In the case of `CCC1CN(C(=O)c2ccc3nccn3c2)CC(C)[S+]1[O-]` (centres undefined), the “% Inhibition” value is recorded as -13% and the Z score is 2.01.

With `CCC(C(=O)Nc1cc(C)on1)(C(F)(F)F)C(F)(F)F`, the “% Inhibition” value was 42% and the Z score was -5.42.

As for `CC[C@H](NCC(=O)N(Cc1ccccc1)c1ccccc1)c1cccc(S(N)(=O)=O)c1`, the “% Inhibition” value was -9% and the Z score was determined as 1.15.

Regarding `O=C1CN(c2ncc(C(F)(F)F)s2)CN1CCC(F)(F)F`, the “% Inhibition” value is on record as -2% and the Z score was 0.25.

As to `CC(c1cn(-c2ccccc2)nn1)N1CCCC(CS(N)(=O)=O)C1` (centres undefined), the “% Inhibition” value was -1% and the Z score was determined as 0.12.

For the compound `CC(=O)NC[C@H]1Cn2cc(-c3ccccc3)nc2CO1`, the “% Inhibition” value was 27% and the Z score is -3.01.

Regarding `CO[C@@H]1C[C@@H](c2nc(C3CC3)n[nH]2)N(Cc2cc(C#N)ccc2F)C1`, the “% Inhibition” value was -10% and the Z score is reported as 1.41.

As to `COc1ccc(CCNC(=O)[C@H]2CCCN(c3nc4ccccc4[nH]3)C2)cc1OC`, the “% Inhibition” value is recorded as 4% and the Z score is -0.66.

Take `CC(C)c1nc([C@H]2CCCN(c3ncnc4nc[nH]c34)C2)no1`: the “% Inhibition” value is 2% and the Z score is given as -0.32.

As for `CN(C)[C@H]1CCCCN(Cc2nc(-c3ccccc3)cs2)C1`, the “% Inhibition” value was -7% and the Z score is reported as 1.12.

Consider `O=C1C[C@H](NCc2c(Cl)cccc2N2CCOCC2)CN1C1CC1`, for which the “% Inhibition” value is reported as -8% and the Z score stood at 1.53.

In the case of `Cc1ccc(CNC(=O)CN(C2CCC(C)CC2)C2CCC(O)CC2)cc1` (centres undefined), the “% Inhibition” value is -6% and the Z score was found to be 0.8.

With `C[C@@H](CNC(=O)c1ccc2cnccc2n1)N(C)C1CC1`, the “% Inhibition” value is reported as -14% and the Z score is 1.81.

For the compound `O=C(CCC1CCCCC1)Nc1ccc2c3c(cccc13)C(=O)NC2=O`, the “% Inhibition” value worked out at 5% and the Z score was -0.59.

With `C[C@]1(CO)CCCN(Cc2ccccc2OCC(=O)N2CCCCC2)C1`, the “% Inhibition” value is -1% and the Z score is reported as 0.19.

On to `CN(CC1CCC1)C(=O)[C@@H]1CCCN1c1ncnc2sccc12`, for which the “% Inhibition” value was -1% and the Z score is reported as 0.12.

Consider `CS(=O)(=O)C1(C(=O)NC(C2CCCC2)C2CCCC2)CCCC1`, for which the “% Inhibition” value is -5% and the Z score was 0.79.

As for `O=C(c1n[nH]c2c1CCC2)N1CCOC[C@@H](O)C1`, the “% Inhibition” value is on record as -11% and the Z score worked out at 2.05.

`CN(C(=O)Nc1cccc(OCc2ccc(Cl)cc2)c1)[C@H]1C[C@@H](C(N)=O)C1`: the “% Inhibition” value is on record as -12% and the Z score stood at 1.26.

Turning to `O=C(c1cncc(N2CCOCC2)c1)N1CCn2c1nc1ccccc12`, the “% Inhibition” value is listed as -9% and the Z score is 1.5.

As for `COc1ccc(-c2noc([C@H](C)NC(=O)c3cnc[nH]c3=O)n2)cc1OC`, the “% Inhibition” value is listed as -2% and the Z score was 0.28.

For the compound `N#Cc1cccc(COc2cccc(CN[C@H]3CCCCNC3=O)c2)c1`, the “% Inhibition” value is -7% and the Z score was 0.76.

As for `c1cnc(-c2n[nH]c(CCC3CCCC3)n2)nc1`, the “% Inhibition” value is listed as -13% and the Z score was determined as 1.94.

For the compound `CN(C)[C@@H]1CN(C(=O)c2ccc3cc[nH]c3c2)CC[C@@H]1CO`, the “% Inhibition” value turned out to be 0% and the Z score worked out at 0.02.

On to `Cc1ccc(-c2[nH]c3c(c2[C@H]2C(=O)Nc4ccccc42)c(=O)[nH]c(=O)n3C)cc1`, for which the “% Inhibition” value is reported as -9% and the Z score is 0.95.

On to `CN1CCN(S(=O)(=O)c2ccc(Br)c3nsnc23)CC1`, for which the “% Inhibition” value is reported as -11% and the Z score was determined as 1.41.

`Cc1ccc(CS(=O)(=O)N[C@H]2CCc3n[nH]c(=O)n3CC2)cc1C`: the “% Inhibition” value was -13% and the Z score worked out at 1.97.

Take `O=C(Cc1cn2c(n1)CCCC2)N1CCc2cc(F)c(F)cc21`: the “% Inhibition” value was -3% and the Z score is 0.33.

For the compound `COc1ccc(CCN(Cc2nc(C(=O)NCc3cccc(C(F)(F)F)c3)cs2)Cc2ccccc2F)cc1OC`, the “% Inhibition” value is -5% and the Z score was 0.71.

For `CCS(=O)(=O)NCC(=O)N1CCC(c2cc(C)ccc2C)CC1`, the “% Inhibition” value is recorded as -10% and the Z score is reported as 1.82.

Consider `CC(C(=O)NC(=O)NC1CC1)N1CCC2C(C1)C2(F)F` (centres undefined), for which the “% Inhibition” value is listed as -10% and the Z score was 1.41.

With `CCc1nnc(NCC2(Cn3cccn3)CC2)o1`, the “% Inhibition” value is listed as -4% and the Z score was determined as 0.4.

As for `COc1ccccc1-c1noc(CN(C)c2ccccc2)n1`, the “% Inhibition” value was -12% and the Z score stood at 1.64.

Regarding `COC[C@H](C)N(Cc1ccc(OC)c(OC)c1)C(=O)CCn1nc(C)c(C)c1C`, the “% Inhibition” value is -2% and the Z score is recorded as 0.25.

`CN1CCO[C@@H](CNc2ncnc3c2cnn3-c2ccccc2F)C1`: the “% Inhibition” value was -1% and the Z score is on record as 0.08.

Turning to `O=C(Cn1c(=O)n(Cc2ccco2)c(=O)c2ccccc21)Nc1cccc(Br)c1`, the “% Inhibition” value was found to be 32% and the Z score was -0.75.

`CN(C)C(=O)CN1CCN(C(=O)C2CCCCC2)[C@H]2CS(=O)(=O)C[C@H]21`: the “% Inhibition” value was -13% and the Z score came out at 1.71.

On to `COc1ccc(NC(=O)c2cccc(C)c2C)c(S(=O)(=O)N2CCCCC2)c1`, for which the “% Inhibition” value stood at 3% and the Z score is on record as -0.37.

`COc1ccc(C(C)C(=O)N2CCCC[C@@H]2C(=O)O)cc1` (some centres undefined): the “% Inhibition” value is recorded as 2% and the Z score is recorded as -0.31.

Regarding `O=C1CC[C@H](N2Cc3ccc(NCC(=O)Nc4ccccc4)cc3C2=O)C(=O)N1`, the “% Inhibition” value is given as -15% and the Z score is 1.5.

As for `CCOC(=O)Cc1csc(NC(=O)COc2cn(C)c(C)cc2=O)n1`, the “% Inhibition” value is listed as -2% and the Z score amounted to 0.29.

As to `Cc1ccc(-c2ccc(C(=O)N(C)C3(C#N)CCC3)c(F)c2)cc1C`, the “% Inhibition” value is recorded as -15% and the Z score was found to be 1.39.
